From patent US20240190989A1 (BEIGENE SWITZERLAND, published 2024) come the findings set out here.

The target of one assay is T1, cyno CD137 ECD-mIgG2a (monkey (Macaca mulatta gene; called …).
T1 chain: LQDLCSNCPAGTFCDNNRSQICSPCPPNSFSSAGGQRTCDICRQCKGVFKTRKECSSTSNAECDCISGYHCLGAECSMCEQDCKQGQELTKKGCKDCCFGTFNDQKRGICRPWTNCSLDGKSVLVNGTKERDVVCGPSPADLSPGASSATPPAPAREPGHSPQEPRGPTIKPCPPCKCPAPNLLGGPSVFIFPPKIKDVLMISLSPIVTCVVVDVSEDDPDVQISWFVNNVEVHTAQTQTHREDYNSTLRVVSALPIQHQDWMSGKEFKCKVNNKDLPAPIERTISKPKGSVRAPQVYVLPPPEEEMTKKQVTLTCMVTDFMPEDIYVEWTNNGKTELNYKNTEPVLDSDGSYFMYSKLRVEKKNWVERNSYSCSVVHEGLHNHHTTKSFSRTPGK
The assay can be described thus: SPR, antibody captured, cyno CD137 ECD-mIgG2a as analyte.

A further assay deals with T2, human CD137 ECD-mIgG2a (human).
T2 construct: ECD 24-183 of huCD137 fused to mouse IgG2a Fc; also called huCD137-mIgG2a; huCD137
The assay can be described thus: SPR, antibody captured, human CD137 ECD-mIgG2a as analyte.

In assay [1] the target is T3, full-length human CD137 on cells (Hut78/huCD137, HEK293 transfectants, JK-NFKB-CD137) (human, UniProt Q07011 24-255).
T3 construct: also called native CD137; TNFRSF9
T3 sequence (Q07011 24-255 limits assumed): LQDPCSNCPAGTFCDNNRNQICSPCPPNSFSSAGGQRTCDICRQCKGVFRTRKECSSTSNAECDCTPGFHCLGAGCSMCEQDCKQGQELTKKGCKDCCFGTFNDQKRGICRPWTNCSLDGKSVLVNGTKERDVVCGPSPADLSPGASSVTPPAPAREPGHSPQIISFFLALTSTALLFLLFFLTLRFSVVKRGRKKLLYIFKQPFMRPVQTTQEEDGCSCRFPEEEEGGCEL
The assay can be described thus: flow cytometry on live Hut78/huCD137 cells.

B1: BGA-5623 fused with wild type IgG1 Fc (Fc fusion)
chain: EVQLLESGGGLVQPGGSLRLSCAASGFTVSAEDVGWVRQAPGKGLEWVSAILDKGGSTYYAESVKGRFTISRDNAKNTLYLQMSSLRAEDTAVYYCARIVYHAGGGVTFDTRGQGTQVTVSS[not shown - human IgG1 Fc with changes]
With B1, in the assay with cyno CD137 ECD-mIgG2a, binding was put at a Kd of 19.6 nM, the koff stood at 0.00254 s⁻¹ and the kon came out at 130000 M⁻¹ s⁻¹. In the assay with human CD137 ECD-mIgG2a, this molecule gave an equilibrium dissociation constant (Kd) of 23.8 nM, a koff of 0.00503 s⁻¹ and an on-rate (kon) of 212000 M⁻¹ s⁻¹. In assay [1], this molecule displayed an EC50 of 2.97 µg/mL.
